Measured values published in paper PMC12040169 (PLOS Biology, 2025).
This is one part of the list.

Tested on: T1, C. trachomatis L2/434/Bu expressing GFP (CTL2-GFP)
T1 construct: L2/434/Bu GFP intracellular growth in HeLa cells
Design: species or system HeLa; C. trachomatis total inclusion area by high-content imaging, normalised to DMSO
Details: total inclusion area; 28.5 h, 10 µM; inhibitor
Procedure, shortened: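 High-content images of fixed, Hoechst-stained infected cultures supply inclusion area and count (growth) plus nuclei number (viability), complementing bulk GFP/resorufin fluorescence. MIC determination is unchanged from the primary assay.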

Row | Compound | % of control remaining
1 | Cc1ccc(S(=O)(=O)Nc2ccc(Nc3nc(-c4ccccc4)cn4ccnc34)cc2)cc1 [CBK037303] | 120.31
2 | CN1CCN(S(=O)(=O)c2ccc(NC(=O)Cc3ccc([N+](=O)[O-])cc3)cc2)CC1 [CBK268161] | 101.45
3 | CN(C(=O)NC1CCN(Cc2cccc(O)c2)CC1)C1CCS(=O)(=O)C1 (stereo not drawn) [CBK306538] | 61.8366
4 | Cc1cc(NCC2CCCO2)n2ncc(-c3ccccc3)c2n1 (stereo not drawn) [CBK304530] | 59.3149
5 | COc1ccccc1N1CCN(C(=O)C2CC2C)CC1 (stereo not drawn) [CBK091496] | 123.648
6 | Cc1ccc(NC(=O)CCC(=O)N2CCC3(CC2)CC(=O)c2ccccc2O3)cc1 [CBK156524] | 85.8889
7 | O=C(Oc1ccc(N(C(=O)c2ccncc2)S(=O)(=O)c2cccc3cccnc23)c2ccccc12)c1ccncc1 [CBK266915] | 61.3048
8 | COC(=O)c1cn([C@H]2CO[C@H]3[C@@H]2OC[C@@H]3NC(=O)C2CC2)nn1 [CBK289497] | 123.02
9 | O=C(CN1C(=O)c2ccccc2C1=O)Nc1cccc(C(=O)O)c1 [CBK287040] | 104.323
10 | O=C(Nc1cccc(N2CCNCC2)c1)c1cnccn1 [CBK029470T] | 105.609
11 | CC(=O)Nc1ccc(-c2cc(Nc3cccc(N(C)C)c3)ncn2)cc1 [CBK091017] | 135.566
12 | Cc1ccnn1CCNC(=O)CCc1ccc(Cl)cc1 [CBK283182] | 75.0661
13 | O=C(CN1C(=O)CCC1=O)NCCc1ccccc1 [CBK262326] | 91.5601
14 | COc1ccc(Br)cc1CN1CCN(Cc2cccc([N+](=O)[O-])c2)CC1 [CBK263347] | 108.562
15 | CC(C)(C)OC(=O)N1CCN(c2ccc(N)c3ccccc23)CC1 [CBK003162] | 74.303
16 | COc1ccc(OCCCCCN2CCC3(CC2)OCCc2c3[nH]c3ccccc23)cc1 [CBK113517T] | 0.5251
17 | O=C(Cc1c[nH]c2ccccc12)N1CCCC1c1cccc(Cc2ccccc2F)n1 (stereo not drawn) [CBK285799] | 95.2858
18 | CC(C)CC1(C(CN2C(=O)c3ccccc3C2=O)C(=O)NO)CCN(CCc2ccccc2)C1=O (stereo not drawn) [CBK013029] | 50.2609
19 | O=C(c1ccccc1)c1ccc(CNC(=O)C2(c3ccccc3)CCCC2)cc1 [CBK161526] | 80.7284
20 | COc1ccc2oc(C(=O)NC(C)(C)CN3CCCCC3)cc2c1 [CBK282053] | 108.209
21 | CC(C)Nc1nccnc1OCCN1CCOCC1 [CBK113410] | 73.6891
